Experimental data published in the supplement of paper PMC3334620.
In all, about 33,000 sequences were measured (“E-score (-0.5 to 0.5)”: median about -0.021, highest 2% from about 0.32 on). The list shows a part of the results.

Target: T1, Zap1 (UniProt P47043)
T1 sequence: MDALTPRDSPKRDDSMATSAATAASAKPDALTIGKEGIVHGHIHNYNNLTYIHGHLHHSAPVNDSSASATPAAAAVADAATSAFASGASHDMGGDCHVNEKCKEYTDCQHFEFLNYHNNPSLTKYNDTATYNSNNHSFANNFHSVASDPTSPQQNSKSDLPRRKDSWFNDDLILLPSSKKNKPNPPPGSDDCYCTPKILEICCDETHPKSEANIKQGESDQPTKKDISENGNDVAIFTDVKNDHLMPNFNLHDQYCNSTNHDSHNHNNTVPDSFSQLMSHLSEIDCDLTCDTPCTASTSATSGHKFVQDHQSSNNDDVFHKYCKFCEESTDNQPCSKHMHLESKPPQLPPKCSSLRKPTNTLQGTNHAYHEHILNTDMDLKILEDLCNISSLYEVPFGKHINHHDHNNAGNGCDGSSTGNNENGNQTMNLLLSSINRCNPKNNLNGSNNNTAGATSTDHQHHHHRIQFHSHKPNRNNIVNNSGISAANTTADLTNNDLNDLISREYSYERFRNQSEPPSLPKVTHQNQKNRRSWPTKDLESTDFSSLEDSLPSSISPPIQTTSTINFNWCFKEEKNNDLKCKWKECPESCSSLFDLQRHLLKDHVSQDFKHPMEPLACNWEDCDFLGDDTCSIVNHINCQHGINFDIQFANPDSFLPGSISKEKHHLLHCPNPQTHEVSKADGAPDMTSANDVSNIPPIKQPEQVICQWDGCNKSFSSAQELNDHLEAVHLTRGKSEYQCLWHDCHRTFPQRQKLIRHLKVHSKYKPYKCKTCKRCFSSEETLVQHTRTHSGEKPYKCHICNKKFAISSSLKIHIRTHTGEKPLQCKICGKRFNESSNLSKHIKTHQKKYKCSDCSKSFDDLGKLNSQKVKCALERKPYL
Experiment: PBM E-score (8-mer binding enrichment) (E-score (-0.5 to 0.5)); higher = stronger / more preferred TF binding; most listed sequences are background and not binding sites
Settings: protein concentration: 200 nM; construct: GST-full length
How it was run: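 Yeast transcription factors carrying a GST tag, as full-length proteins or DNA-binding domains, were produced by PURExpress in vitro transcription/translation. About 100-200 nM protein was applied to universal all-10-mer Agilent arrays, double-stranded by primer extension on fresh or once-stripped slides. Bound protein was detected with fluorescent anti-GST, and scans were normalised with masliner. The Universal PBM Analysis Suite gave each ungapped eight-base word, pooled with its reverse complement, an E-score, a modified Wilcoxon-Mann-Whitney statistic.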

Sequence	PBM E-score
ACTCCCAC	-0.172
TGATACAA	0.0581
GTGCGTTA	0.0111
ACCATTCT	0.0676
CACCCTGA	0.162
GACAGGAA	0.0503
CACCCTCC	0.326
TAACTACA	0.25
CAAAACAC	0.167
CTGCGCAA	-0.131
CGATCCGA	-0.0912
ACGTAGAG	-0.136
CTGTATGA	-0.101
AAACCTTC	0.106
AACGAGCT	-0.167
CCCGACTC	-0.113
AGTGGAAG	-0.204
ATGAACTG	0.0254
CCAGTAGC	-0.134
GATTGTTA	0.0692
CCTCAGCG	-0.135
AGTGCAGA	-0.0375

Sequence	PBM E-score
AACAAGTT	0.0719
ACTCCTCA	-0.261
AGGTCGTA	0.189
AAAACCGC	0.16
AGTACAGC	-0.186
AAACTCCA	-0.0324
ATACAATC	-0.0527
ACGACTAG	-0.0356
CGCCCGCC	-0.137
ACGGGGCG	0.0523
CACGACGC	-0.0412
CATGGCGC	-0.101
ATCCATTA	0.125
AGATTTGC	-0.0426
CGCATCCG	-0.182
AACGCATG	-0.11
ATACATCG	-0.0304
ATCGCCAA	-0.061
ACCATGCG	-0.0399
GGGTCGCA	0.264
CATTGGTA	0.0623
ATGTCCTC	0.0186

Sequence	PBM E-score
CGCCTATC	-0.204
GCTCTTGA	-0.213
ACTACCAG	-0.0188
AGTCATGG	-0.00999
CGTGTGGC	-0.208
CTCACACC	-0.06
AATAAAGT	0.239
AGAGAATG	-0.0214
TCTATCAA	0.0482
CCCTGCTA	-0.0286
GCTATGCC	-0.27
GGCGATGA	-0.261
AGCCCGAG	-0.149
AGAGCTCT	-0.378
CGGCCAGC	-0.215
CCAAGCCG	-0.112
ACCAGCAC	0.00044
AAGGAGTA	-0.0173
CCTCGAAA	0.111
ATCGTCTA	-0.148
CGACGTGC	-0.259
CGAACTTA	0.0786

Sequence	PBM E-score
AATTGTCG	-0.0744
TATGGCCA	0.164
CTTAACTC	0.0138
AGTCGACA	0.04
AAGGTATA	0.237
ATCCGCGA	-0.0356
ACCAATGG	0.201
TAAGCGCA	-0.0722
CCCCAGAA	0.189
CACCCACC	0.194
TAAGTTGA	0.0648
ACAGTCAC	-0.171
GGCATACA	-0.15
CCCAGAGC	-0.139
CAGGCGTA	-0.0918
ACTTCCCT	0.0737
GAGTGCCC	-0.226
GGTTCACA	-0.0618
GGACTTCA	-0.103
CGTAGCAG	-0.0847
